Molecules are shown by their SMILES. Screen size: about 310,000 compounds; about 14,000 (4.5%) showed an effect of 50% or more. Effects have a minus sign here. This is one part of the list.
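Further: peak tail current of the secondary pulse compared with the same well before compound.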

Sequence of human ether-à-go-go-related gene (hERG) potassium channel (Q12809 whole entry, looked up): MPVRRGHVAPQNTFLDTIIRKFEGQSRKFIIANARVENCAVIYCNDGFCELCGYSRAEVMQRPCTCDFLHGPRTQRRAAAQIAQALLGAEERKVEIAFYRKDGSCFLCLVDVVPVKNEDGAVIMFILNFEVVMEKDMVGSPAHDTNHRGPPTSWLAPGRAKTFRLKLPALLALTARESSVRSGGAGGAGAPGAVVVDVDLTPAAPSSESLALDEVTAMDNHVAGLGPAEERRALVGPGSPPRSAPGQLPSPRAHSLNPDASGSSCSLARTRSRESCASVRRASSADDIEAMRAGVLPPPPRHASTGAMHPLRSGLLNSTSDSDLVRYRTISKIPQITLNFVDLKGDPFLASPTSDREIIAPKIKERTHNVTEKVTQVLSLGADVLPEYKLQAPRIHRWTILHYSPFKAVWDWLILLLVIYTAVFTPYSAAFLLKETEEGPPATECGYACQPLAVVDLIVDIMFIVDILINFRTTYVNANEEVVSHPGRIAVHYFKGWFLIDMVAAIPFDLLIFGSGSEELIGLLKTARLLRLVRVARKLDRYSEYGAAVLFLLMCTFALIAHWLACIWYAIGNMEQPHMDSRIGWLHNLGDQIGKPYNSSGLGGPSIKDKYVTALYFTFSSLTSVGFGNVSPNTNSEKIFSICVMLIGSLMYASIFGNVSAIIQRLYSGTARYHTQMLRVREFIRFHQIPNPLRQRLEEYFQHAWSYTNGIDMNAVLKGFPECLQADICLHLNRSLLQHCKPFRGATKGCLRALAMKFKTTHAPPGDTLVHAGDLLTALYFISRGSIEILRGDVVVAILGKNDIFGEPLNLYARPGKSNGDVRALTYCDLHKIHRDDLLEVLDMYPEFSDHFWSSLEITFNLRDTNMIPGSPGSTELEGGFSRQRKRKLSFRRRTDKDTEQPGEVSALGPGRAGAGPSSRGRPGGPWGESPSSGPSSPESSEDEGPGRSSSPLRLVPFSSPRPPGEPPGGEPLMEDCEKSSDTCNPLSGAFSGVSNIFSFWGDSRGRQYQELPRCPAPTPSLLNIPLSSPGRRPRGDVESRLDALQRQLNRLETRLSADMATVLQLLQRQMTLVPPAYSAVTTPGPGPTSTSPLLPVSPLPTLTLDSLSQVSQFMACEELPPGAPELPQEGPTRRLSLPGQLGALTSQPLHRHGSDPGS

The experiment addresses human ether-à-go-go-related gene (hERG) potassium channel (human, UniProt Q12809). The experiment is described as follows: primary screen, population patch clamp on CHO cells stably expressing hERG.
Take `O=C(Nc1ccc([N+](=O)[O-])cc1)Nc1ccon1`: the “hERG current change (%, negative = inhibition) at 10uM” value came out at 2.74%.
On to `COc1cc(OC)cc(-c2cc3nc(C)cc(N4CCN(C(=O)c5ccco5)CC4)n3n2)c1`, for which the “hERG current change (%, negative = inhibition) at 10uM” value is reported as 1.49%.
As for `Cc1ccc(COCC(CC(C)C)N2CCN(C(=O)c3cccc(C(F)(F)F)c3)CCC2=O)cc1` (centres unmarked), the “hERG current change (%, negative = inhibition) at 10uM” value was -25.8%.
For the compound `S=C(NCc1ccc2[nH]c3c(c2c1)CCCC3)Nc1ccccc1Cl`, the “hERG current change (%, negative = inhibition) at 10uM” value amounted to 10.3%.
The figure for `CC(C)(C)C1=Nn2c(nnc2-c2ccccc2F)SC1` is 1.42%; for `C/C(=N\NC(=O)c1c(C)nc2ccccn12)c1ccc(C(C)(C)C)cc1` it is 3.45%; for `CCOC(=O)C1C(=O)C=C(C)C(C(=O)OCC)C1c1ccc(OC)cc1` (centres unmarked) it is -8.31%.
The figure for `CNC(=O)CN(c1ccc(Oc2ccccc2)cc1)S(=O)(=O)c1ccc(C)cc1` is 13.1%.
Take `CCOc1cccc2cc(C(=O)N3CCOCC3)c(=O)oc12`: the “hERG current change (%, negative = inhibition) at 10uM” value was determined as 14.6%.
The figure for `COCCN1Cc2cccc(C(=O)Nc3cc(OC)ccc3OC)c2C1=O` is -23.7%; for `Cc1cc(C)c(N(C(=O)Cn2nnc3ccccc32)C(C(=O)NC(C)(C)C)c2ccsc2)c(C)c1` (centres unmarked) it is -44.1%; for `N#CCc1ccc(NS(=O)(=O)c2ccc(N3CCCC3=O)cc2)cc1` it is -7.66%.
The figure for `O=C(Cc1c(F)cccc1Cl)NC1=NCCS1` is -3.44%.
As for `O=C(N/N=C/C1=C(N2CCOCC2)C(=C\c2ccccc2)/CC1)Nc1ccccc1`, the “hERG current change (%, negative = inhibition) at 10uM” value turned out to be 6.96%.
In the case of `COc1ccc(NC(=O)CCN2CCN(c3ccccc3F)CC2)c(OC)c1`, the “hERG current change (%, negative = inhibition) at 10uM” value is on record as -18.1%.
Consider `C[N+]1(CC(=O)OC2CCCCCCCCCCC2)CCCC1.[I-]`, for which the “hERG current change (%, negative = inhibition) at 10uM” value was -15.4%.
Turning to `O=S(=O)(Cc1ccc(Cl)cc1)c1ccccc1-c1nnc(-c2ccc(Cl)cc2)o1`, the “hERG current change (%, negative = inhibition) at 10uM” value came out at 0.136%.
Take `CCC(C)(C)n1nnnc1C(c1ccncc1)N1CCN(c2cccc(OC)c2)CC1` (centres unmarked): the “hERG current change (%, negative = inhibition) at 10uM” value is recorded as -17.9%.
The figure for `CCn1c(SCc2nc3ccccc3c(=O)[nH]2)nnc1C(C)NC(=O)c1ccccc1F` (centres unmarked) is 0.399%.
In the case of `COc1ccc(C(=O)C2CCCN(C(=O)CCc3ccccn3)C2)c(C)c1` (centres unmarked), the “hERG current change (%, negative = inhibition) at 10uM” value is on record as -14.7%.
As to `CS/C(=N\N(C)C(N)=O)c1ccccc1`, the “hERG current change (%, negative = inhibition) at 10uM” value was determined as 10.9%.
The figure for `CCOC(=O)C(C)(C)NS(=O)(=O)c1ccc(Cl)c([N+](=O)[O-])c1` is -11.1%; for `O=[N+]([O-])c1ccc(O)c(/C=N/NC2=NS(=O)(=O)c3ccccc32)c1` it is 12.7%; for `O=C(NNc1ccccn1)c1ccc(Cl)nc1` it is 1.48%.
With `CNC(=O)CSc1nc(N)c2c3c(sc2n1)CCC3`, the “hERG current change (%, negative = inhibition) at 10uM” value is recorded as -31.7%.
The figure for `CCN(CC)c1ccc(NC(=O)c2cc(Cl)ccc2OC)cc1` is -10.4%; for `CC1CCCCC1NC(=O)CCn1ccc2cc(S(=O)(=O)N3CCCC3)ccc21` (centres unmarked) it is -0.975%.
As to `COC(=O)C1=C(C)NC(C)=C(C(=O)OC)C1c1ccco1`, the “hERG current change (%, negative = inhibition) at 10uM” value worked out at 7.42%.
Take `CCC(C)S(=O)(=O)c1snnc1C` (centres unmarked): the “hERG current change (%, negative = inhibition) at 10uM” value is given as 22.7%.
The figure for `Cc1ccn2cc(CCNC(=O)c3ccc(Br)o3)nc2c1` is -57.5%; for `CCOC(=O)[C@H]1[C@H]2COc3cc(OC)ccc3[C@@H]2N2C(=O)CN(Cc3ccco3)C(=O)[C@@]12C` it is 0.847%.
The figure for `O=C(NCc1ccco1)c1cccnc1-c1nc2ccccc2s1` is -19.6%; for `CCCCN(C(=O)/C=C/c1ccccc1)C1CCS(=O)(=O)C1` (centres unmarked) it is -28.1%; for `CN(C)C(=O)c1ccc(NC(=O)c2ccccc2-c2ccccc2)cc1` it is 15.9%.
In the case of `CN(C)S(=O)(=O)c1ccc(C(=O)OCC(=O)NCc2ccccc2)cc1`, the “hERG current change (%, negative = inhibition) at 10uM” value is on record as 4.97%.
The figure for `CC(C)C(NC(=O)c1cccnc1)C(=O)O` (centres unmarked) is 5.78%.
To `COc1ccc(Cl)cc1NS(=O)(=O)c1cn(C)nc1C` belongs 7.1%; to `CCOP(=O)(OCC)C(NC(=O)Nc1ccc(C)cc1)C(N)=O` (centres unmarked), 6.91%.
Take `CC(C)=CCC/C(C)=C/C(N)=O`: the “hERG current change (%, negative = inhibition) at 10uM” value was determined as 10.7%.
The figure for `Cc1cc(C)c(C(=O)CSc2nc(C)cc(=O)[nH]2)c(C)c1` is 10.8%; for `CCc1ccc(NC(=O)C2CCCN(S(=O)(=O)c3cccnc3)C2)cc1` (centres unmarked) it is -10.7%.
The figure for `N#Cc1cccc(NCC(=O)Nc2cccc(S(=O)(=O)N3CCCCC3)c2)c1` is -46.7%; for `N#Cc1nc(-c2cccs2)oc1N1CCOCC1` it is 8.23%; for `Cc1cc(NC(=O)CSc2nc(CC(C)(C)C)nc3c2c(=O)n(C)c(=O)n3C)no1` it is 4.05%.
Turning to `COC(=O)c1c(CSc2ccc(C)c(C)c2)noc1C(=O)NCc1ccc(OC)cc1`, the “hERG current change (%, negative = inhibition) at 10uM” value was -11.3%.
To `O=C(NCc1ccccc1F)C1CCCN(C(=O)Nc2ccc(F)cc2)C1` (centres unmarked) belongs -5.03%.
In the case of `CC(C)C(=O)Nc1ccc(C(=O)CN2C(=O)NC3(CCOc4ccccc43)C2=O)cc1` (centres unmarked), the “hERG current change (%, negative = inhibition) at 10uM” value is on record as -12.3%.
For `Cn1c(-c2ccccc2)cnc1SCC(=O)N1CCCCC1`, the “hERG current change (%, negative = inhibition) at 10uM” value is reported as -3.68%.
Turning to `COc1cc(OC)c(C(=O)NNC(=S)NC2CCCCC2)cc1OC`, the “hERG current change (%, negative = inhibition) at 10uM” value is on record as 16.6%.
To `CCOC(=O)C1(CCCc2ccccc2)CCN(C(=O)Cc2nonc2C)CC1` belongs -51.3%; to `O=C(Nc1ccc(F)c(F)c1)C1CCN(S(=O)(=O)c2cccc3nonc23)CC1`, 16.4%; to `Cc1cccc(C)c1NC(=O)CN(C)S(=O)(=O)c1ccc(-c2ccc(=O)[nH]n2)s1`, -51.7%.
The figure for `O=C(CSc1nc2ccccc2s1)NC(=O)NCc1ccco1` is 10.4%; for `CC(=O)c1ccc(S(=O)(=O)N2CCN(C(=O)CN3C(=O)NC4(CCCC4)C3=O)CC2)cc1` it is 12.3%; for `CCN1C(=O)c2ccccc2S(=O)(=O)c2ccc(C(=O)NCCOC)cc21` it is 18.9%.
The figure for `COc1cccc(CCC(=O)N(C)C2CCCN(Cc3ccccc3F)C2)c1` (centres unmarked) is -0.453%; for `CCCCOc1ccc(C(=O)NNC(=S)NC(=O)CC)cc1` it is 16.7%.
For `CN(NC(=O)c1ccccc1)C1=NS(=O)(=O)c2ccccc21`, the “hERG current change (%, negative = inhibition) at 10uM” value amounted to 23.4%.
To `CC(C)(C)n1nnnc1C(c1cccc(C#N)c1)N1CCN2CCCC2C1` (centres unmarked) belongs 4.48%; to `COc1ccc(-c2nnc3ccc(SCC(=O)N4CCOCC4)nn23)cc1`, -14%; to `COCC(=O)N/N=C\c1ccc(OC/C=C/c2ccccc2)c(OC)c1`, -11.2%.
The figure for `O=C(CNC(=O)C1CCCCC1)Nc1ccccc1` is 33.1%; for `COc1cccc(C(c2sc3nc(C)nn3c2O)N2CCN(C(=O)c3ccco3)CC2)c1` (centres unmarked) it is -27.4%.
With `O=C(O)C1CC(=O)N(c2ccc(OCc3ccccc3)cc2)C1` (centres unmarked), the “hERG current change (%, negative = inhibition) at 10uM” value is recorded as -0.486%.
To `COc1ccc(F)cc1S(=O)(=O)NCC1CCCO1` (centres unmarked) belongs 7.9%; to `Cc1ccc(N/C=C(\[N+](=O)[O-])S(=O)(=O)c2ccccc2)cc1`, 13.7%; to `CCn1c(=O)c(C(=O)NNC(=O)Cc2ccccc2)c(O)c2ccccc21`, 7.94%.
To `COc1cccc(C2C(C(C)=O)=C(C)Nc3ncnn32)c1` (centres unmarked) belongs -31.9%; to `C[C@H](NC(=O)C1CC(=O)N(c2ccc3c(c2)OCCO3)C1)C(=O)N1CCC(C(=O)O)CC1` (some centres unmarked), 15%; to `COCC(=O)N1CCCC(CNS(=O)(=O)c2ccc(OC)cc2)C1` (centres unmarked), 34.6%.
The figure for `CCC(CC)c1nnc(NC(=O)c2ccc(N3CCCCC3)c([N+](=O)[O-])c2)s1` is 11%; for `O=C(Nc1ccn(CC(=O)N2CCN(c3ccccn3)CC2)c(=O)n1)OCc1ccccc1` it is -10.4%; for `CSc1cc(C)c(OCC(=O)Nc2c(C)nn(C)c2C)c(C)c1` it is -19.8%.
For `COc1ccc(C)cc1-n1cnnn1`, the “hERG current change (%, negative = inhibition) at 10uM” value is listed as 16.8%.
To `O/N=C/c1ccccc1OCc1ccccc1Cl` belongs 3.82%; to `Cc1ccc(C(=O)Nc2ccc(N3CCN(C(=O)c4cccs4)CC3)cc2)c(Cl)c1`, -5.13%.
Consider `COC(=O)c1c(C)nsc1NC(=O)Oc1ccccc1`, for which the “hERG current change (%, negative = inhibition) at 10uM” value came out at 16.6%.
To `O=C(NCc1ccccc1)c1cc2ccccc2oc1=O` belongs 9.92%; to `O=C(NC(=S)NNC(=O)c1ccccc1O)c1cccs1`, 10.5%.
To `Cc1cc(C)nc(SCNC(=O)c2ccc(Cl)cc2)n1` belongs 13.3%; to `CCOc1cc(/C=N/NC(=O)c2cccnc2)cc(Br)c1OCC(N)=O`, -22.5%; to `Cc1ccc(CNC(=O)CC2(CC3=NS(=O)(=O)c4ccccc4N3)CCCC2)cc1`, 6.74%.
To `CCN(CC)C(=O)Oc1c(Cl)cc(Cl)c2cccnc12` belongs -7.49%.
As to `Cn1c(-c2c(N)n(CCc3ccccc3)c3nc4ccccc4nc23)nc2ccccc21`, the “hERG current change (%, negative = inhibition) at 10uM” value is reported as -3.57%.
To `O=C(/C=C\c1ccccc1)Oc1cccc2cccnc12` belongs 13.7%; to `COc1c(C)cc(S(=O)(=O)N2CCCC2)c(C)c1C`, -10.8%; to `Cc1ccc(-c2nnc(-c3ccncc3)n2-c2ccc(C)cc2)cc1`, -13.7%.
Regarding `CCc1c(C#N)c(SCCC(=O)Nc2cccc(OC)c2)nc2c1C(=O)CC(C)(C)C2`, the “hERG current change (%, negative = inhibition) at 10uM” value worked out at 4.07%.
To `COc1ccc(Cc2ccc(OC)c(N)c2)cc1N` belongs -52.6%.

The values are drawn from paper PMC4336329 (PLoS ONE, 2015).
